# Laboratory results as given in PubChem BioAssay AID1468 (National Center for Advancing Translational Sciences (NCATS), 2008).
# About 1,100 (0.39%) of roughly 280,000 compounds were called active. The inconclusive results got no clear call from the source; some entries with a clear call stand among them for comparison. The call rests on the fitted dose curve; in most records, active means well fitted inhibition curve with a large enough effect; inconclusive means small, poorly fitted or top-dose-only effect, or effect the other way; inactive means flat fitted curve, though single readings scatter. No potency is given beside an inconclusive call; the fits are too rough.
# Target: Microtubule-associated protein tau (Homo sapiens) (UniProt P10636)
# UniProt P10636, sequence (P10636 whole entry, looked up): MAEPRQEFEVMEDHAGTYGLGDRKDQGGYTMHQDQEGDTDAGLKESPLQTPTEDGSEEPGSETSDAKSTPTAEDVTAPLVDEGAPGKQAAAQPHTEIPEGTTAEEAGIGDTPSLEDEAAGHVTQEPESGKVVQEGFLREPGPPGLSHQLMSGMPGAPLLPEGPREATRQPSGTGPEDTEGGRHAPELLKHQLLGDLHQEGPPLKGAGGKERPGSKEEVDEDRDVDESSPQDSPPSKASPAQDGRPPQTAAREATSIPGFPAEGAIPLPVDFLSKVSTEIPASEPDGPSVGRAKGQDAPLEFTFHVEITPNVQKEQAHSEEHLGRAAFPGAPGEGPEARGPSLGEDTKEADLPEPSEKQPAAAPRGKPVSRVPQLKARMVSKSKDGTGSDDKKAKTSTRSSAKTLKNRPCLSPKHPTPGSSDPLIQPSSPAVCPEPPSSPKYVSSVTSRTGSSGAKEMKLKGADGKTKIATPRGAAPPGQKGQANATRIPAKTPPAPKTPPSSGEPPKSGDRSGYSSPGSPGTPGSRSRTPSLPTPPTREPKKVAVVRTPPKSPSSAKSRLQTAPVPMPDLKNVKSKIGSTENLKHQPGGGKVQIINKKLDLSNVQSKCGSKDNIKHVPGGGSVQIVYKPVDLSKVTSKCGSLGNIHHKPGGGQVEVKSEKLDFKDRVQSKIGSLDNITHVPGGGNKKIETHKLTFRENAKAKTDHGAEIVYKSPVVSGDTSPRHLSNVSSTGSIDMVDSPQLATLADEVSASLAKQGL
# Assay: qHTS for Inhibitors of Tau Fibril Formation, Fluorescence Polarization; further: nearly all actives have a fitted effect of over 55% in size
# Conditions: K18 P301L tau heparin fibrillization, Alexa594 FP, 6 h; series mostly up to 57.7 µM
# Outline: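 Steps: dispense K18 P301L tau (15 uM plus 0.24 uM Alexa 594 tracer, final) in pH 7 sodium acetate; add compound; add heparin (20 uM final); incubate 6 hr, 37 C; add ThT (30 uM final); after 1 hr ambient, read FP.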
# On the % scale 0 is the no-effect control and ±100 the full control effect; potency means the concentration at half of the fitted maximal effect; tags describe the fitted curve by direction and shape.
SMILES,Potency,"activity, negative = inhibition"
COc1ccc(OC)c(-c2csc(NC(=O)CSc3ccc(Br)cc3)n2)c1,"inconclusive [inhibitor, single point]",–
COC(=O)C1=C(C(=O)OC)[C@@H]2N(Cc3ccccc3)c3ccccc3[C@@]23C[C@@H](C(=O)OC)N(S(=O)(=O)c2ccc(OC)cc2)C3=N1,–,inactive: 0.499% [at 11.6 µM]
COc1cc(/C=N/N(C)c2ccccc2)cc(Cl)c1O,"inconclusive [activator, partial curve]",–
COc1ccc(OC)c(-c2cc(C(=O)Nc3ccc(C)c(C)c3)no2)c1,"inconclusive [inhibitor, single point]",–
Cc1onc(-c2ccccc2)c1C(=O)Nc1nnc(COc2ccc(Cl)cc2)s1,"inconclusive [inhibitor, single point]",–
O=C(CSc1ccsc1[N+](=O)[O-])N1CCN(c2ccc(Cl)cc2)CC1,"inconclusive [inhibitor, single point]",–
O=C(O)CC1S/C(=N\N=C/c2ccccc2)N(c2ccc(O)cc2)C1=O (configuration not stated),"inconclusive [inhibitor, single point]",–
Cc1cc(N/N=C/c2ccc(O)cc2O)nc(-c2ccccc2O)n1,"inconclusive [activator, full curve, poor fit]",–
Cc1ccc(Cl)cc1N1CCN(C(=O)Cn2cnc3onc(-c4ccc(F)cc4)c3c2=O)CC1,"inconclusive [inhibitor, partial curve, poor fit]",–
CCc1nc2ccc(C(=O)N3CCN(c4ccccc4F)CC3)cc2nc1CC,inactive,–
O=C1OC(c2ccccc2)=C/C1=C/N1CCCCC1,"inconclusive [inhibitor, partial curve]",–
CC(O)CNc1nc2sc3c(c2c(=O)n1Cc1ccco1)CCCCC3 (configuration not stated),"inconclusive [activator, partial curve]",–
Cc1ccc(NC(=O)C2SC(=Nc3ccccc3)C(C(=O)Nc3ccc(Cl)cc3)=C2N)cc1 (configuration not stated),"inconclusive [inhibitor, single point]",–
CN(C)c1nc(Nc2ccc(Cl)cc2)nc(OCC#N)n1,"inconclusive [inhibitor, single point]",–
CS(=O)(=O)N1CCc2cc(-c3csc(NC(=O)Cc4cccs4)n3)ccc21,inactive,–
Nc1nc(CSC(=S)N2CCCCC2)nc(Nc2ccccc2)n1,"inconclusive [inhibitor, partial curve]",–
CCOc1ccc(NC(=O)Cn2c(=O)n(CCc3ccccc3)c(=O)c3c4c(sc32)CCCC4)cc1,"inconclusive [inhibitor, partial curve]",–
